From ChEMBL document CHEMBL1201862, “PubChem BioAssay data set” (2004)

Tested on: NCI-H322M
Assay: NCI tumour cell line growth inhibition, 48 h

Structure (SMILES) | GI50
Nc1c2c(nc3ccccc13)CCCc1ccccc1-2 | inactive: 8.75 µM
Nc1c(C(=O)Nc2ccc([As](=O)(O)O)cc2)cnc2nnnn12 | inactive: > 100 µM
Cc1cc(O)c(-c2cc(O)c(C)cc2O)cc1O | inactive: 17.3 µM
COC1=C(N)C(=O)c2nc(C)ccc2C1=O | inactive: 5.48 µM
O=C(Nc1ccc([As](=O)(O)O)cc1)Nc1cccc(Cl)c1Cl | inactive: > 100 µM
CCOC(=O)C=C1CCN(C(=O)c2ccccc2)CC1 | inactive: > 100 µM
CNc1ccccc1-c1nc2ccccc2c(=O)o1 | inactive: > 100 µM
COc1cc(OC)nc(-n2c(N)c(C(=O)O)c3ccc([N+](=O)[O-])cc3c2=O)n1 | inactive: > 100 µM
C=C(C(=C)P(=S)(c1ccccc1)c1ccccc1)P(=S)(c1ccccc1)c1ccccc1 | inactive: > 100 µM
N=C(N)N/N=C/c1ccc(O)c(C(=O)O)c1 | inactive: > 100 µM
BrCC[N+]12CC[N+](CCBr)(CC1)C2 | inactive: > 100 µM
CCOC(=O)c1nc[nH]c1/N=N/N(C)N | inactive: > 100 µM
OC(c1ccc(Br)cc1)(c1cccs1)C1CC1 (configuration not stated) | inactive: 30.1 µM
C/C(=N/NS(=O)(=O)c1ccc([N+](=O)[O-])cc1)c1cccc[n+]1[O-] | inactive: > 100 µM
CC(C)NC(=O)CN1CCN(C2=C(Cl)C(=O)c3c(O)ccc(O)c3C2=O)CC1 | inactive: 4.2 µM
Cc1c2ccccc2nc2[nH]c3ccncc3c12 | inactive: 21.7 µM
C[C@]12CC[C@H](OC3CCCCO3)CC1=CC[C@@H]1C2CC[C@]2(C)/C(=N/OCCC#N)CCC12 (some centres not stated) | inactive: > 100 µM
N=C(N)NCCCC(NC(=O)OCCCCCCn1ccc(N)nc1=O)C(=O)O (configuration not stated) | inactive: > 100 µM
Cc1ccc(NC(=O)CC(=O)n2nc(-c3ccccc3)c(/N=N/c3ccccc3Cl)c2-c2ccccc2)cc1 | inactive: 48.4 µM
CCOC(=O)C1=NN(c2ccc(C)cc2)C2=CC(C)=NN(C)C(=S)N21 | inactive: > 100 µM
CCOC1=C2N=C(C(CC)c3ccc(F)cc3)N=C2C(=O)c2ccccc21 (configuration not stated) | inactive: 48.9 µM
Cc1ccc(-c2nnc3s/c(=C\c4ccc(N(C)C)cc4)c(=O)n23)cc1 | inactive: 67 µM
COC(=O)C1C(C)N1C (configuration not stated) | inactive: > 100 µM

Structure (SMILES) | GI50
COc1ccc(C2SCC(=O)N2c2ccc(-c3ccc(-n4c(-c5ccccc5)nc5ccccc5c4=O)cc3)cc2)cc1OC (configuration not stated) | inactive: 16 µM
CCCc1onc(CCC(=O)N(Cc2ccccc2)Cc2ccccc2)c1CC | inactive: > 100 µM
CCCN(CCC)C1=Nc2ccccc2-n2cnnc2C1 | inactive: > 100 µM
CC1C=CN(N(C)C)C2=C1C(=O)c1cnccc1C2=O (configuration not stated) | active: 0.897 µM
C1CC2=C(C1)[Se]C(=C1Sc3nsnc3S1)[Se]2 | inactive: > 100 µM
CC1(C)OC2OC(C(=O)c3ccccc3)C3OC(C)(C)OC3C2O1 (configuration not stated) | inactive: > 100 µM
COc1ccc(C(OCC2OC(n3cc(C)c(=O)[nH]c3=O)CC2n2cc(Cn3cc(Br)c(=O)[nH]c3=O)nn2)(c2ccccc2)c2ccccc2)cc1 (configuration not stated) | inactive: > 100 µM
O=S(=O)(O)c1ccc(Nc2ccnc3cc(Cl)ccc23)cc1 | inactive: > 100 µM
CCOC(=O)NC1C2CC(=O)C(O2)C1OCc1ccccc1 (configuration not stated) | inactive: > 100 µM
Cc1nnc2n1-c1ccccc1N(Cc1ccccc1)CC2 | inactive: > 100 µM
Cc1cn(Cc2cnnn2CC2OC(n3cc(C)c(=O)[nH]c3=O)CC2O)c(=O)[nH]c1=O (configuration not stated) | inactive: > 100 µM
CC1(C)OC2C(CO)OC(n3ccc(N)nc3=O)C2O1 (configuration not stated) | inactive: > 100 µM
CC1=C(CO)C(=O)OC(C(C)C2CCC3C4CC5OC56C(O)C(N5CC5)=CC(=O)C6(C)C4CCC23C)C1 (configuration not stated) | inactive: 13.6 µM
O=C(O/N=C1/CCC/C1=C\c1ccccc1)c1ccc(Cl)cc1 | inactive: > 77.6 µM
CCOC(=O)C1=CN/C(=C(/C)C(=O)OC)SC1C(=O)OCC (configuration not stated) | inactive: > 100 µM
O=[N+]([O-])C=C(c1ccc(Cl)cc1)c1ccc(Cl)cc1 | inactive: 16.5 µM
O=C1NCN(c2ccccc2)C12CCN(CCCN1CCN(CCOC(c3ccc(F)cc3)c3ccc(F)cc3)CC1)CC2 | inactive: 1.97 µM
c1ccc(P2c3ccccc3Nc3ccccc32)cc1 | inactive: > 100 µM
COc1cc(C(C[N+](=O)[O-])SC(C)=O)ccc1OCc1ccccc1 (configuration not stated) | inactive: 8.22 µM
Nc1cccc2nnccc12 | inactive: > 100 µM
CN(CCCNC(=O)c1nn(-c2ccccc2)c2c1ccc1ccccc12)CCCNC(=O)c1nn(-c2ccccc2)c2c1ccc1ccccc12 | inactive: 1.88 µM
CC1=CC(=O)N(n2c(C)n[nH]c2=O)C1=O | inactive: > 100 µM
CCOC(=O)NC(=O)c1cn(CCCCCCOC(=O)NCCCCCCNC(=O)OCCCCCCn2cc(C(=O)NC(=O)OCC)c(=O)[nH]c2=O)c(=O)[nH]c1=O | inactive: > 100 µM

Structure (SMILES) | GI50
Nc1ccn(CC(O)c2cc3ccccc3[nH]2)c(=O)n1 (configuration not stated) | inactive: > 100 µM
COc1ccc2c(c1)CCc1c(CO)c(COC(=O)NC(C)C)n(C)c1-2 | inactive: 19.4 µM
Cc1ccc(Nc2nc(=O)c3c([nH]c4ccccc43)s2)cc1 | inactive: 13.5 µM
CC(=O)O[C@H]1C(=O)[C@@]2(C)[C@H]([C@H](OC(=O)c3ccccc3)[C@@]3(O)C[C@H](O)C(C)=C1C3(C)C)[C@]1(OC(C)=O)CO[C@@H]1C[C@@H]2O | inactive: 42 µM
Cc1cc(N(C)C)ccc1/N=N/c1ccc2ncccc2c1 | inactive: 67.8 µM
Fc1ccc2c(c1)SC1=Nc3sc4cc(F)ccc4[n+]3CN12 | inactive: 29.2 µM
COC(=O)CCC(C)C1CCC2C3CCC4CC5CCC4(C)C3(O5)C(Br)C(Br)C12C (configuration not stated) | inactive: > 100 µM
C[P+](c1ccccc1)(c1ccc(Cl)cc1)c1ccc(Cl)cc1 | inactive: 23.1 µM
CCCC(=O)c1c(NOC2OCC(OC(C)=O)C(OC(C)=O)C2OC(C)=O)nc(OC)n(C)c1=O (configuration not stated) | inactive: > 100 µM
CCC1(C)C=Cc2c(cc(O)c3c(=O)c4ccccc4n(C)c23)O1 (configuration not stated) | inactive: > 10 µM
CCCN(CCC)CCc1ccc(OC2=CCN(C)CC2)cc1 | inactive: > 100 µM
C/C(=N\Nc1nc2ccccc2[nH]1)c1ccc2ccccc2n1 | inactive: 2.53 µM
CC(C)NC(=O)OCc1c(COC(=O)NC(C)C)c(-c2cc[n+](COC(=O)Cc3ccccc3)cc2)n2c1CCC2 | inactive: > 100 µM
Cc1cccc(C)c1N1C(=O)C(=O)C(c2nc3ccccc3s2)/C(=N/NC(=O)c2ccccc2O)C1=O (configuration not stated) | inactive: 58.9 µM
CCOC(=O)/C(C(=O)Nc1ccc(Cl)cc1)=C(/N)N1CCCC1 | inactive: > 100 µM
Cc1ccc2c(sc(-c3ccc4c(c3)sc(-c3ccc(N(C)C)cc3)[n+]4C)[n+]2C)c1S(=O)(=O)O.Cc1ccc2c(sc(-c3ccc4c(c3)sc(-c3ccc5c(c3)sc(-c3ccc(N(C)C)cc3)[n+]5C)[n+]4C)[n+]2C)c1S(=O)(=O)O | inactive: > 100 µM
CCCCCCCCCCC(C)CCCCCCC(=O)O (configuration not stated) | inactive: > 100 µM
N#CCCN(CCN(CCC#N)C(=O)Nc1ccccc1)C(=O)Nc1ccccc1 | inactive: > 100 µM
Cc1c(C)c(S(=O)(=O)N(CCCN)OCCCN)c(C)c2c1OC(C)(C)CC2 | inactive: 17 µM
c1ccc(COC2(OCc3ccccc3)CC3OC2C2NN=NC32)cc1 (configuration not stated) | inactive: 75.3 µM
Cc1ccc(C)c(NC(=O)C(=O)CC(=O)C2CCOC2=O)c1 (configuration not stated) | inactive: > 100 µM
Cc1cc2c(cc1C)N1Cc3c(ccc(C)c3C)N(C2)C1.Cc1cc2c(cc1C)N1Cc3cc(C)c(C)cc3N(C2)C1 | inactive: > 100 µM
COc1ccc2nc(-c3ccc(O)cc3)ccc2c1 | inactive: > 100 µM

Structure (SMILES) | GI50
CC(C)=CCc1c(OC(=O)c2c(C)cc(O)cc2O)cc(CO)c(CO)c1O | inactive: 21.3 µM
COc1ccc(C23C(=O)c4ccccc4N2O[C@H]2C(=O)N(c4ccccc4)C(=O)[C@H]23)cc1 (some centres not stated) | inactive: > 100 µM
O=S(=O)(O)SCCNCCCCCC1CCCCC1 | inactive: 8.85 µM
CN1C(=O)c2ccccc2OC12C=Cc1c(ccc3ccccc13)O2 (configuration not stated) | inactive: 15.2 µM
CCN(CC)CCNC(=O)c1cc2cc(NC(=O)c3cc4cc(NC(=O)c5cc6cc(N)ccc6[nH]5)ccc4[nH]3)ccc2[nH]1 | inactive: > 100 µM
CCOC(=O)c1nc2cc(C(F)(F)F)ccc2nc1Nc1ccc(C(=O)NC(C(=O)OCC)C(=O)OCC)cc1 | inactive: 43.3 µM
COc1cc(CCN)c(OC)c(OC)c1 | inactive: > 100 µM
CC(C)c1cc2c(c(O)c1O)[C@@]1(C)CCCC(C)(C)C1=C(O)C2 | inactive: 1.67 µM
O=[N+]([O-])c1ccc(C2Nn3c(nnc3-c3cccc([N+](=O)[O-])c3)S2)cc1 (configuration not stated) | inactive: > 100 µM
N#COc1ccc(Oc2ccc(OC#N)cc2)cc1 | inactive: > 100 µM
COC(=O)c1c(C(=O)OC)c(-c2ccccc2)n(-c2ccccc2)c(=O)c1-c1ccccc1 | inactive: > 100 µM
O=C(/C=C/c1ccccc1O)/C=C/c1ccccc1O | inactive: 2.23 µM
O=C(O)Cc1cccc2c1Oc1ccccc1S2 | inactive: > 100 µM
CC(CC[C@@]1(C)C(=O)CCC2O[C@]21C)[C@H]1C[C@@H](c2ccoc2)OC1=O (some centres not stated) | inactive: > 100 µM
CC(=O)NCCc1c[nH]c2ccc(Cl)cc12 | inactive: > 100 µM
Cc1ccccc1CN1CC2=C(CCN(Cc3ccccc3)C2=O)N2CCN=C12 | inactive: 19.8 µM
O=C1/C(=C/c2ccc(F)cc2)CNC/C1=C\c1ccc(F)cc1 | inactive: 3.88 µM
O=C(O)c1ccc(C(=O)O)c2c(C(=O)O)ccc(C(=O)O)c12 | inactive: > 100 µM
Oc1ccccc1C(Sc1nc2ccccc2s1)Sc1nc2ccccc2s1 | inactive: 98.2 µM
Cn1c(=O)nc2n(-c3ccc(Cl)c(C(F)(F)F)c3)c3ccccc3nc-2c1=O | inactive: 32.9 µM
CC(=O)Nc1ccc(/C=C/[N+](=O)[O-])cc1 | inactive: 9.23 µM
CCc1nc(N)nc(N)c1-c1ccc([N+](=O)[O-])c(NCc2ccccc2)c1 | inactive: 16 µM
Cc1cc(C)cc(Sc2c([N+](=O)[O-])ncn2C)c1 | inactive: 30.6 µM

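Each compound was tested at five concentrations against cells in 96-well plates for 48 hours. GI50 is the concentration that inhibits growth by half.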 Active and inactive are the calls of the source. No stated cut-off is given here; in the data, active = GI50 up to about 1.1 µM and inactive = higher.
